# Measurements reported in the supplement of paper PMC10300432.
# Recombinant human monoclonal antibodies (heavy:light variable regions). ELISA EC50 on the named antigen, from 10 µg/ml down; IC50 against spike pseudovirus on HT1080-ACE2 cells, 48 h; lower = stronger. Calls: IC50 above 1,000 ng/ml = non-neutralizing; EC50 above 1,000 ng/ml = non-binder.
# B1: C5246 (protein)
# chain 1: QLQLQESGPGLVKPSETLSLTCTVSGGSISRTPYYWGWIRQSPGKGLEWIGSIDYSGSTYYNPSLESRVTLSVDTSKNHFSLILRSVTAADTAVYYCARQEMGTTLENWYFDLWGRGTLVTVSS
# chain 2: DIQMTQSPSSLSASVGDRVTVTCRASHAIANSLAWYQQKLGKAPKLLLHAASELESGVPSRFSGSGSGTTYTLTISSLQPEDSATYYCQQYYATPPTFGQGTKVEIK
# B2: C5243 (protein)
# chain 1: EVQLVETGGGLIQPGGSLRLSCAASGFTVSSDYMSWVRQAPGKGPEWVSVIYNDDRTQYADSVKGRFTISRNNSKNTVYLQLNSLRLDDTAVYYCTRGRGIQLDWGQGTLVTVSS
# chain 2: DIQMTQSPSSLSASVGDRVTITCRASQGVSNSLAWYQQKPGRAPKLLLYAASTLESGVPSRFSGSGSGTDYTLTISSLQPEDFATYYCQQYYSALTWTFGQGTKVEIK
# B3: C5240 (protein)
# chain 1: QVQLQESGPGVVKPSETLSLTCFVSGVSGRSYSWNWIRQPPGKGLEWIGFIHYTGDSNYNPSLKSRVTISLDTSKNQFSLKVTSMTAADTAVYYCARGVRLAVAGTDPDYFDFWGQGALVTVSS
# chain 2: SYELTQPPSVSVSPGQTARITCSGDALPNLYTFWYQQKPGQAPLLVIYKDNERPSGIPERFSGSTSGTTVTLTISGVQAEDEADYFCQSADSAGAVFGGGTKLTVL
# B4: C5244 (protein)
# chain 1: QLQLQESGPGLVKPSETLSLTCSVSGDSISKNHYSWGWIRQPPGKGLEWIGNVFYSGNTYYNPSLKSRLTVSVDTSKNHFSLRLSSVTAADTAVYHCARQNPYYSDNSGYDFSDLKFDYWGQGILVTVSS
# chain 2: QSVLTQPPSVSGAPGQRVTISCTGSSSNIGAGYNVHWYQQLPGTVPKLLIFDNTNRPSGVPDRFSGSRSGTSASLAITGLQAEDEGDYYCQSYDSSLSGPNYVFGTGTKLTVL
# B5: C5046 (protein)
# chain 1: QVQLVQSGAEVKKPGASVKLSCKTFGYIFTDHYLHWVRQAPGQGLEWMGWVSPNSGATNYTQKFQGRVTMTRDTSITTVYMELKRLSSDDTAVYYCARDHMRFMVRGVLSLWGQGTLVTVSS
# chain 2: QSALTQPPSASGSPGQSVTISCTGTSIDVGDYNSVSWYQQHPGKAPQLMIYEISKRPSGVPDRFSGSKSGNTASLTVSGLQAEDEADYYCSSYVGRNNWVFGGGTKLTVL
# B6: C5242 (protein)
# chain 1: QVQLQESGPGLVKPSETLSLTCNVSGGSISIFYWSWIRQSPGKGLEWIGYINANRRTDYNPSLKNRVTISVDTSKKQFSLQLSSVTTADTAVYYCARVFFDFPRGLGHDVFDIWGQGTKVTVSS
# chain 2: EIVLTQSPATLSLSPGERATLSCRASQSVSSTFLAWYQQKPGLAPRLLIYDASSRATGIPDRFSGSGSGTDFTLTISRLEPEDFAVYFCQQYGNPPLTFGGGTKVEIK
# B7: C5245 (protein)
# chain 1: QVQLVQSGAEVRKPGSSVKLSCKVTGGPFDSFSISWVRQAPGQGLEWMGRIFPILRVAHYAQNFEGRLTITAERSTNTAYMEISSLRSDDTAVFYCVRDRAGDGYNSRSFDPWGQGTLVTVSS
# chain 2: QSVLTQPPSVSGAPGQRVTISCTGTNSNIGAGYAVHWYQQLPGSAPKLLIYGNNNRPSGVPDRFSASKSDTSASLAITGLQAEDEADYYCQSYDSSLGGSEVFGGGSKLTVL
# B8: C5241 (protein)
# chain 1: QVQLVQSGAEVKKPGSSVKVSCKASGGSFSSYTITWVRQAPGQGLEWMGRIIPILGIPYSAQRFVGRVTITADKSTGTAYMELSSLRSDDTAVYYCAREVGYSATSGAHWYFDLWGRGTLVTVSS
# chain 2: QSVLTQPPSVSGAPGQRVTISCTGSNSNIGAGYDVHWYQQLPGTAPKLLIYANNNRPSGVPDRFSGSKSDTSASLAITGLRAEDEADYYCHSYDSSLSDSLFGGGTKLTVL
# Target: SARS-CoV-2 Omicron BA.1 spike pseudovirus
# Experiment: pseudovirus neutralization IC50; higher = weaker neutralization
# Description: (§1)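 Single-round luciferase reporter pseudovirus mixed with antibody dilutions and put on HT1080-ACE2 clone 14 cells for 48 h; signal relative to no-antibody wells, four-parameter fit.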
row,Binder,pseudovirus neutralization IC50
1,B1,> 1 µg/mL
2,B2,> 1 µg/mL
3,B3,> 1 µg/mL
4,B4,0.0231 µg/mL
5,B5,> 1 µg/mL
6,B6,0.00281 µg/mL
7,B7,0.0176 µg/mL
8,B8,0.0123 µg/mL

# Target: SARS-CoV-2 Omicron BA.4/5 spike pseudovirus
# Experiment: as above
# Description: as §1
row,Binder,pseudovirus neutralization IC50
1,B1,> 1 µg/mL
2,B2,> 1 µg/mL
3,B3,> 1 µg/mL
4,B4,> 1 µg/mL
5,B5,> 1 µg/mL
6,B6,> 1 µg/mL
7,B7,> 1 µg/mL
8,B8,> 1 µg/mL

# Target: SARS-CoV-2 Wuhan-Hu-1 spike pseudovirus
# Experiment: as above
# Description: as §1
row,Binder,pseudovirus neutralization IC50
1,B1,0.39 µg/mL
2,B2,0.00346 µg/mL
3,B3,0.285 µg/mL
4,B4,0.0058 µg/mL
5,B5,0.000712 µg/mL
6,B6,0.00116 µg/mL
7,B7,0.0628 µg/mL
8,B8,0.0727 µg/mL

# Target: SARS-CoV-2 Wuhan-Hu-1 spike receptor-binding domain
# Experiment: ELISA binding EC50; higher = weaker binding; ELISA of recombinant human antibody on coated antigen, from 10 µg/ml in fourfold dilutions; four-parameter fit.
row,Binder,ELISA binding EC50
1,B1,0.0051 µg/mL
2,B2,0.0048 µg/mL
3,B3,0.00584 µg/mL
4,B4,0.00593 µg/mL
5,B5,0.00267 µg/mL
6,B6,0.0042 µg/mL
7,B7,0.00151 µg/mL
8,B8,0.00784 µg/mL
